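Cells were grown in 96-well plates and exposed to each compound for 48 hours at five concentrations; endpoints were interpolated linearly between bracketing concentrations, or set to the highest concentration if not reached. At the GI50, growth is halved.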 Active and inactive are the calls of the source. Cut-off read from the data, not from the text of the source: active = GI50 up to about 1.1 µM and inactive = higher.

The assay relates to NCI-H322M. In words: NCI-60 cell line screen, 48 h.
Take `O=C(O)CSc1ccn(Cc2ccccc2)c1`: the GI50 was inactive: > 100 µM. `C1CCNCC1.Oc1ncnc2[nH]cc(CN3CCCCC3)c12`: the GI50 is inactive: > 100 µM. Take `O=C1NC2c3c(I)sc(I)c3C(=O)C2O1` (centres undefined): the GI50 was inactive: 16.3 µM. As for `O=S(=O)(c1ccc(Br)cc1)N1CCN(S(=O)(=O)c2ccc(Br)cc2)CC1`, the GI50 is inactive: > 100 µM.

As for `COc1ccc(-c2oc3c(OC)c(OC)c(OC)c(O)c3c(=O)c2OC)cc1O`, the GI50 is active: 0.918 µM.

For `COC1C(O)C(C)OC(OC2C(Oc3cccc4c(O)c5c(=O)oc6ccc(C)c7c(=O)oc(c34)c5c67)OC(C)C3O[C@H](c4ccccc4)OC32)C1O` (some centres undefined), the GI50 is active: 0.305 µM. Turning to `CCCCCCCCCCCCCCCCCCNc1ccn(C2OC(COP(=O)(O)OCC3OC(n4cc(F)c(NCCCCCCCCCCCCCCCCCC)nc4=O)CC3O)C(O)C2O)c(=O)n1` (centres undefined), the GI50 was inactive: > 100 µM. Take `O=c1[nH]c2nc3ccccc3c(=O)n2/c1=C/c1ccc(Cl)cc1`: the GI50 was inactive: 50.1 µM. As for `COC(=O)C1Cc2c([nH]c3ccccc23)C(c2ccccc2O)N1` (centres undefined), the figure is inactive: 36.6 µM.

For `COc1ccc(OC)c(N(CN2C(=O)CCC2C(=O)O)C(C)=O)c1` (centres undefined), the GI50 was inactive: > 100 µM. `COc1ccc(-c2cnoc2-c2ccc(OC)c(OC)c2)cc1OC`: the GI50 was inactive: 3.4 µM. Turning to `CC(CN(C)C)/C(=N\Nc1ccccc1)c1ccccc1` (centres undefined), the GI50 is inactive: 19.8 µM. For `COc1ccc(C[N+](C)(C)N)cc1OC` the value was inactive: > 100 µM.

On to `CN(C)CC1CCCC(CN(C)C)C1OC(=O)c1ccccc1` (centres undefined), for which the GI50 was inactive: > 100 µM. For `CC(C)CC(=O)OC[n+]1cccc(-c2c(COC(=O)NC(C)C)c(COC(=O)NC(C)C)c3n2CCC3)c1`, the GI50 was inactive: 53.6 µM.

Turning to `COc1ccc(C(OCC2OC3(COC(c4ccccc4)(c4ccc(OC)cc4)c4ccc(OC)cc4)C(Oc4nc(=O)ccn43)C2O)(c2ccccc2)c2ccc(OC)cc2)cc1` (centres undefined), the GI50 is inactive: > 100 µM.

Take `CCOc1cc(NC(C)=O)ccc1C(=O)NN1C(=O)C(Cl)C1c1ccc(O)c(OC)c1` (centres undefined): the GI50 was inactive: 13.7 µM. For the compound `CCOC(=O)Cc1ccc(Nc2nc3ccccc3nc2C(=O)OCC)cc1`, the GI50 is inactive: 85.5 µM. As for `O=C(O)c1cccc(/N=N/c2c(S(=O)(=O)O)ccc3c2C(=O)c2ccccc2C3=O)c1O`, the figure is inactive: > 100 µM; as for `COC(=O)c1cc2ccc(OC(C)=O)c(OC(C)=O)c2cn1`, inactive: 23.1 µM. For `COC(=O)C(=O)Nc1cc2c3c(c1)Oc1cccc4c1C3(C)c1c(cccc1O2)O4`, the GI50 was inactive: > 100 µM. Take `CC1(C)CC2C(=O)c3ccccc3NC2c2ccccc21` (centres undefined): the GI50 was inactive: 5.5 µM. Take `COC(CNC(=O)C(C)NC(=O)CCc1ccccc1)OC` (centres undefined): the GI50 is inactive: > 100 µM. For `CCCCCCCCCCCc1nnc(N)o1` the value was inactive: > 100 µM; for `N#CC(c1ccccc1)c1cccc2ccccc12` (centres undefined), inactive: 37 µM. As for `CCS(=O)(=O)c1c2cc(OC)ccc2nc2ccc(OC)cc12`, the figure is inactive: > 100 µM. For `CCN(C(C)=O)c1cnc(/C=N/NC(N)=S)c2ccccc12` the value was inactive: 1.45 µM; for `Cn1c2ccccc2c(=NNc2ccc(C(=O)O)cc2)c2ccccc21`, inactive: 16.2 µM; for `C/C=C(/C)C(=O)OC1CC(C)[C@H]2CC(=O)C(C)=C2CC1C(C)(C)OC(C)=O` (some centres undefined), inactive: 40.5 µM.

Take `CCN(CC)CCOc1ccc(/C=C(\C#N)c2ccc(OCCN(CC)CC)cc2)cc1`: the GI50 was inactive: 14.6 µM. As for `Nc1nc(N)c(-c2ccccc2)c(C(=O)Nc2nccs2)n1`, the figure is inactive: > 100 µM; as for `OC1CCC(COC(c2ccccc2)(c2ccccc2)c2ccccc2)O1` (centres undefined), inactive: 16.9 µM; as for `C/N=C1\OC2=C3C(c4ccccc4)(O/C(=N/C)N(C)C3(c3ccccc3)OC2=O)N1C` (centres undefined), inactive: > 100 µM.

For `N#Cc1nc(C(O)c2ccccc2)oc1N` (centres undefined), the GI50 was inactive: > 100 µM. As to `COc1cc(OC(C)=O)cc2c(OC(C)=O)ccc(OC(C)=O)c12`, the GI50 was inactive: > 100 µM. As for `COc1cc2c(c(OC)c1OC)-c1ccc(SC)c(=O)cc1C(CC(=O)Oc1cccc(F)c1)C2` (centres undefined), the figure is inactive: 2.51 µM; as for `CCCCCCOc1ccc(C(=O)N(C)O)cc1`, inactive: 26.4 µM; as for `CCCCCCCCCCCCO[PH](=O)OCCCCCCCCCCCC`, inactive: > 100 µM.

For `O=c1oc2ccccc2cc1-c1nc2ccc([N+](=O)[O-])cc2o1`, the GI50 was inactive: > 100 µM. `COC(=O)[C@@H]1C=C[C@@H](C#N)n2c(=O)n(-c3ccccc3)c(=O)n21`: the GI50 was inactive: 43.2 µM. As to `COc1ccccc1NC(=O)CC(=O)NN`, the GI50 was inactive: > 100 µM. `O=C1NC(=S)NC(=O)C1=Cc1ccc([N+](=O)[O-])o1`: the GI50 was inactive: > 100 µM. For `COC/C=C\COC` the value was inactive: > 100 µM; for `CSCCC(N)C(=O)NCCNc1ccc(NCCNC(=O)C(N)CCSC)c2c1C(=O)c1ccccc1C2=O` (centres undefined), active: 0.923 µM. Regarding `COc1cc(/C=C2\C[C@H]3[C@@H]4CCc5cc(OCCN6CCCC6)ccc5[C@H]4CC[C@]3(C)C2=O)cc(OC)c1OC`, the GI50 was inactive: 2.87 µM. As for `COc1ccc(C(=O)Nc2ccccc2C#N)cc1`, the figure is inactive: > 100 µM; as for `NC(Cc1ccc(OCc2ccccc2)cn1)C(=O)OCc1ccccc1` (centres undefined), inactive: > 100 µM. On to `COC(=O)C1=C(C(=O)OC)C2(C(=O)OC)OC1(OC)C(C1(C(=O)OC)C(C(=O)OC)=C1C(=O)OC)=C2C(=O)OC` (centres undefined), for which the GI50 was inactive: > 100 µM. `CC(N)C(=O)OCN1C(=O)C2C3C=CC(C2C1=O)C1C2C(=O)N(COC(=O)C(C)N)C(=O)C2C31` (centres undefined): the GI50 is inactive: > 100 µM. On to `Oc1ccc2c(c1)OCC1c3ccccc3OC21` (centres undefined), for which the GI50 is inactive: 41.4 µM. `CCOC(=O)c1cc2cc(C)cc(C(=O)c3ccc([N+](=O)[O-])cc3)c2[nH]1`: the GI50 is inactive: > 100 µM. As for `CCN(CC)CCC(=O)c1ccc(Oc2ccc(Cl)cc2)cc1`, the figure is inactive: 17.5 µM. For the compound `CCOC(=O)NN(C(=O)OCC)c1c(C)cc(C)cc1C`, the GI50 was inactive: > 100 µM. For `Cc1cc(S(=O)(=O)Nc2cc(N)n[nH]2)c(SCc2nc(N)nc(N(C)C)n2)cc1Cl` the value was inactive: > 10 µM; for `C=CC1CN(C(=O)OCC)N(C(=O)OCC)C1CCc1ccccc1` (centres undefined), inactive: > 100 µM; for `CCCCNC(=S)c1ccc(OC(=O)Nc2ccc(Cl)cc2)cc1`, inactive: > 100 µM. Regarding `COC(=O)C[C@H](CCSC)NC(=O)C[C@H](CCSC)NC(=O)C[C@H](CCSC)NC(=O)OC(C)(C)C`, the GI50 is inactive: 30.2 µM. As for `C=CCc1c(O)c2ccccc2[nH]c1=O`, the figure is inactive: > 10 µM; as for `Cc1ccc2nc(Cl)c(/C=N/N3C(=O)/C(=C/c4ccccc4S)N=C3c3ccccc3)cc2c1`, inactive: > 100 µM.

`O=C(Nn1c(-c2ccccc2)nc2ccccc2c1=O)c1ccccn1`: the GI50 is inactive: > 100 µM.

In the case of `Nc1ncnc2c1ncn2CCCNO`, the GI50 is inactive: > 100 µM. With `CCN(CC)c1ccc2cc(C(=O)Nc3cccc4ccccc34)c(=N)oc2c1`, the GI50 was inactive: > 100 µM. Consider `Oc1ccc2ccccc2c1-c1c(Nc2ccccc2)ccc2ccccc12`, for which the GI50 was inactive: 14.6 µM. As to `COC(=O)[C@H](Cc1c[nH]c2ccccc12)NC(=O)OCC1OC(n2cc(C)c(=O)[nH]c2=O)CC1N=[N+]=[N-]` (some centres undefined), the GI50 is inactive: 30.2 µM. For `CCNc1ncnc2c1nnn2CC`, the GI50 is inactive: > 100 µM. For `Clc1sc(Cl)c2c1[C@H](Cl)C[C@@H]2Cl` the value was inactive: 56.5 µM. For `O=C(Oc1cncc(Cl)c1)c1cc2ccccc2sc1=O` the value was inactive: > 100 µM; for `c1ccc(/N=C2/SC3=Nc4cccc5cccc(c45)N3/C2=N/c2ccccc2)cc1`, inactive: > 100 µM; for `Cc1cc(C)c(S(=O)(=O)N[C@@H](/C=C(\Br)CO)C(C)C)c(C)c1`, inactive: 52.6 µM.

For `[N-]=[N+]=C1N=CN=C1c1nc[nH]n1`, the GI50 was inactive: > 100 µM.

Consider `CC1(C)Cc2c(sc3[nH]c(=S)[nH]c(=S)c23)CS1`, for which the GI50 is inactive: 46 µM. With `O=C1c2cc([N+](=O)[O-])sc2C(=O)c2c([N+](=O)[O-])csc21`, the GI50 is inactive: 1.8 µM. As for `O=[N+]([O-])c1cccc(C(O)/C(=N/Nc2ccccc2)C2Nc3ccc([N+](=O)[O-])cc3N=C2O)c1` (centres undefined), the GI50 is inactive: 59.2 µM. As for `COc1ccc(NC(=S)c2ccc(CN3CCCCC3)s2)cc1`, the figure is inactive: 16.5 µM; as for `O=c1oc2cc(O)ccc2c2[nH]c3cc(O)ccc3c12`, inactive: 25.2 µM. As for `C=C1CC(OC)(C(O)C(=O)N[C@H]2OCO[C@H]3C2O[C@H](C[C@@H](COC)OC)C(C)(C)C3OC)O[C@H](C)[C@@H]1C` (some centres undefined), the figure is active: < 0.00482 µM; as for `C=C[C@]1(C)CCC2=C(CCC3C2(C)CCC[C@@]3(C)COC(C)=O)C1` (some centres undefined), inactive: 27.6 µM; as for `Cc1cc(C(=C2C=CC(=[N+](C)C)C=C2)c2ccc([N+](C)(C)C)cc2)ccc1N(C)C`, inactive: 5.74 µM.

As to `COc1ccc(-c2csc(=[N+]3CCCCC3)s2)cc1`, the GI50 is inactive: 5.68 µM.

Regarding `Nc1c(S(=O)(=O)O)cc(Nc2cccc(S(N)(=O)=O)c2)c2c1C(=O)c1ccccc1C2=O`, the GI50 is inactive: 30.3 µM. Consider `Oc1ccc(CNCc2ccccc2)c2cccnc12`, for which the GI50 is inactive: 1.31 µM. For `NCCCNCCCCN1CC1`, the GI50 is active: 0.92 µM. For the compound `CCCCCC(=O)N[C@H]1CCc2cc(O)c(O)c(O)c2-c2ccc(SC)c(=O)cc21`, the GI50 was inactive: > 58.5 µM. Take `Cn1cnc([N+](=O)[O-])c1Sc1nc2ccccc2s1`: the GI50 was inactive: 15.8 µM.
